Paper PMC6212790
The other results are listed elsewhere or left out. At the low end of the ranking the order means little.

target: T1, GST-Rok (full length) (UniProt O34857); test: protein binding microarray; details: Rok is a gene silencer of Bacillus subtilis; high values mean tight binding; most listed sequences are background and not binding sites; double strand, one strand shown;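 note: rank score from −0.5 (least bound) to 0.5 (best bound)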
T1 sequence: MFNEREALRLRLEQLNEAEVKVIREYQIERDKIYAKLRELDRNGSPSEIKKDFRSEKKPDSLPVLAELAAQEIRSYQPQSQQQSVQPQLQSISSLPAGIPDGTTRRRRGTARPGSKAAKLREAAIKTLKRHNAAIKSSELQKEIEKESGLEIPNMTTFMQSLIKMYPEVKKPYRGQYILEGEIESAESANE

Row | Sequence | binding signal [E-score]
1 | GAGTTGGA | -0.223
2 | ATTCCTCC | -0.212
3 | ATGCAACC | -0.0472
4 | CCGCTTAC | -0.11
5 | CACACCCC | -0.447
6 | CATTTGAA | -0.0598
7 | CTTATATC | 0.141
8 | CATATTTA | 0.324
9 | CCCTGGTA | -0.12
10 | ATCCGGTA | 0.137
11 | CTTAGATC | -0.00626
12 | ACATCTAC | 0.272
13 | ATATCTGC | 0.221
14 | GAGGCTGA | -0.241
15 | GATTCCTA | 0.224
16 | CAGATAAC | 0.0882
17 | ACCCAGCC | -0.174
18 | GCTGTATA | 0.000472
19 | GGGGTACA | -0.0851
20 | CAGCTTCC | -0.172
21 | GCGGTTAC | -0.338
22 | AGCTGCCT | -0.125
23 | AGTAATAC | 0.26
24 | AGCGCAAG | -0.0658
25 | ACCCATAG | 0.0239

Row | Sequence | binding signal [E-score]
26 | CACTCTGC | -0.276
27 | GATTTTTA | 0.114
28 | CAGTGCGG | -0.0903
29 | AGACATAG | 0.0456
30 | AAATCAAA | -0.0854
31 | ACCGTTAG | 0.0212
32 | CGTCCGAG | -0.129
33 | TAATGACA | 0.242
34 | ATATACCC | 0.188
35 | GATTCGCA | -0.138
36 | AAGGTCGT | -0.211
37 | GAGGATGC | -0.247
38 | CACCAGCA | -0.118
39 | CGCGGCGC | -0.264
40 | AAGAGGAC | -0.223
41 | ATCCGTTA | 0.028
42 | CTGCTTTC | -0.273
43 | CTTAAACA | -0.101
44 | CGAAGATA | 0.283
45 | AACGCACC | -0.131
46 | AAGTTAGA | 0.149
47 | CTCGATAC | -0.0192
48 | CATCAATG | -0.0561
49 | AACGAGCG | -0.28
50 | ATCACTGA | 0.0303

Row | Sequence | binding signal [E-score]
51 | TAGAACTA | 0.406
52 | GAAAACAA | 0.121
53 | ACACGTAT | 0.192
54 | ATCGCGAC | -0.046
55 | GAACCGAC | -0.0645
56 | ACGCAGTG | -0.125
57 | ATCAAACG | -0.0202
58 | CCTCGAAC | -0.13
59 | ACTAGCAA | 0.282
60 | ATTCCAAA | 0.105
61 | AAACTGAC | 0.0255
62 | CAAATCGC | 0.119
63 | AGAACGAT | 0.143
64 | ATATGCAC | 0.238
65 | TAGGACCA | -0.0862
66 | GCGGGCTA | -0.127
67 | GCATTACC | -0.00138
68 | GCGTATCC | -0.124
69 | ATCATGTA | 0.262
70 | AACTCCCA | -0.0875
71 | TGGACTAA | 0.0723
72 | GATCGGCC | -0.109
73 | ACTGAAAT | 0.0309
74 | AGTAGACT | 0.0507
75 | CGCGCGAG | 0.0719

Row | Sequence | binding signal [E-score]
76 | ACCTCGAG | -0.025
77 | GCTGCTAA | -0.0548
78 | AACTCCGC | -0.0584
79 | GGACACCA | -0.155
80 | CGGTTAAA | 0.0392
81 | ACCAGGGA | -0.197
82 | ATCCCGTA | 0.126
83 | AATTGATC | 0.162
84 | GCCAAAAA | -0.174
85 | ACAGAGGA | -0.0647
86 | AGAAAACC | -0.176
87 | AAGTGTTG | 0.0958
88 | AGACTACG | -0.152
89 | GTCAAACA | 0.122
90 | GGGGACCA | -0.293
91 | CATGGAAC | 0.0312
92 | AGAGATAA | 0.125
93 | GTATCCGA | 0.0485
94 | AGTGGAAG | -0.131
95 | ACCTAGGC | -0.176
96 | GAAGTAGC | 0.182
97 | GATTAACA | 0.0979
98 | CTCTACAC | 0.0962
99 | CTTAGGAC | -0.123
100 | ACGCGTCC | -0.141

Row | Sequence | binding signal [E-score]
101 | CACCGATA | 0.13
102 | ACCGGCAA | -0.0643
103 | GCTCGTGA | -0.283
104 | GCATATGA | 0.0258
105 | ACCATTCC | 0.0574
106 | ATATGATC | 0.197
107 | TCCTAAAA | 0.13
108 | CGAATAAC | 0.0626
109 | AAGGATCC | -0.0838
110 | AACGAAGT | -0.0427
111 | ATCGCGGC | -0.0451
112 | AAGCGTGC | -0.212
113 | ACTATCCC | 0.0628
114 | GTTGCGCA | 0.0181
115 | GGGGGAAA | -0.199
116 | ATAGCTCA | 0.148
117 | TGCCATAA | 0.0385
118 | CTACTGAG | 0.104
119 | ATCGCCAG | 0.112
120 | ATAACAAC | 0.153
121 | ACGATATG | 0.103
122 | AGTGATTC | -0.0869
123 | CTTCAGGC | -0.172
124 | ACATTAAA | 0.108
125 | AAATGATT | -0.0952

Row | Sequence | binding signal [E-score]
126 | ACCGCTAG | 0.138
127 | ACCGGGCA | -0.206
128 | AACAAATT | 0.215
129 | CCCCATAG | -0.319
130 | AATCGCGG | 0.0346
131 | CCCGATCC | -0.0948
132 | CTCGATTA | 0.124
133 | ATCATGCC | 0.0705
134 | AAACCGAA | 0.147
135 | CCGGGGCC | -0.313
136 | ATTCGTTG | 0.144
137 | GCCGGGAA | -0.201
138 | GTAGCCTA | 0.06
139 | AAATGATA | 0.37
140 | TAGCTGGA | -0.163
141 | ATTCACTA | 0.247
142 | CGCGCAAA | 0.104
143 | ACAAGCTG | -0.138
144 | TATCGACA | 0.121
145 | AGAATGCT | 0.0696
146 | ATTACGGC | 0.00334
147 | GACCTCTC | -0.376
148 | GGCAGGCA | -0.26
149 | CCGCTGGA | -0.31
150 | AATCTCGA | 0.21

Row | Sequence | binding signal [E-score]
151 | ATTCTTGC | 0.103
152 | TAGCCCCA | -0.173
153 | ACTCGTTG | 0.148
154 | CTTCGAAG | 0.0549
155 | GCCTGAGC | -0.264
156 | GGCCTACC | -0.0792
157 | ACGAACAT | 0.143
158 | ACCGATTA | 0.0737
159 | GTAAACAC | 0.125
160 | GTAGACCA | -0.0718
161 | AGCAAAGA | 0.0273
162 | CCTCAACG | -0.0548
163 | AGGTATCA | 0.177
164 | ACTATTGA | 0.288
165 | GGTCAAAC | -0.0283
166 | ATTTTAAC | 0.209
167 | ACCGATAG | 0.0776
168 | ACCGATCT | 0.211
169 | AGCGCTAC | 0.128
170 | CTATTGTC | -0.0651
171 | CGAGTTGA | 0.112
172 | AAACGTCT | -0.171
173 | AGCTCCGC | -0.314
174 | GATATCCC | -0.129
175 | CTTATCAA | 0.085

Row | Sequence | binding signal [E-score]
176 | CCGTACTC | -0.0271
177 | CAAGGATG | -0.0788
178 | GGTAACTA | 0.305
179 | ACAGCGGG | -0.233
180 | GCGAGCAC | -0.246
181 | AAGGCTTC | -0.328
182 | ATACCTAA | 0.276
183 | AGAGAAAG | -0.146
184 | AAAAACCG | -0.0149
185 | GCTGGTAC | 0.115
186 | GTTCACAA | 0.00461
187 | ACCCTAAT | -0.166
188 | GATAGTCC | -0.127
189 | GACGAAGA | 0.0676
190 | CCATGGCG | -0.139
191 | CCGAGTGC | -0.17
192 | CAGCGGGC | -0.192
193 | TCGCAGCA | -0.169
194 | CCTTCCTA | -0.242
195 | ATAGAGGA | -0.116
196 | ATCTGCGA | 0.0364
197 | CACGGCGA | -0.065
198 | AACGGCAG | -0.296
199 | CAAGACTC | -0.212
200 | GTTACAAC | 0.155

Row | Sequence | binding signal [E-score]
201 | AACTTTAA | 0.168
202 | CCCATGAG | 0.0171
203 | CGAGGGGA | -0.339
204 | TCTAGACA | 0.125
205 | ACCCGGAG | -0.0128
206 | CTTACCAA | 0.0375
207 | ATAACGAC | 0.15
208 | CGTCCGTC | -0.247
209 | ACTCTCAT | 0.162
210 | ATTTCGAC | 0.106
211 | ACCCAACC | 0.0888
212 | CTATGGGC | -0.011
213 | AATGCTAC | 0.219
214 | AGCCCTGG | -0.272
215 | AAGAAGCC | -0.22
216 | ATTTCTGG | 0.149
217 | CTGAGGTA | 0.125
218 | CCAGCGTA | -0.151
219 | AACTGCAA | 0.141
